# The campaign covered roughly 310,000 compounds. About 14,000 (4.5%) showed an effect of 50% or more. Effects have a minus sign here. Some of the results follow.
# Target: human ether-à-go-go-related gene (hERG) potassium channel (human, UniProt Q12809)
# Assay: primary screen, population patch clamp on CHO cells stably expressing hERG
# 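Note: peak tail current of the secondary pulse compared with the same well before compound.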
# human ether-à-go-go-related gene (hERG) potassium channel, sequence (Q12809 whole entry, looked up): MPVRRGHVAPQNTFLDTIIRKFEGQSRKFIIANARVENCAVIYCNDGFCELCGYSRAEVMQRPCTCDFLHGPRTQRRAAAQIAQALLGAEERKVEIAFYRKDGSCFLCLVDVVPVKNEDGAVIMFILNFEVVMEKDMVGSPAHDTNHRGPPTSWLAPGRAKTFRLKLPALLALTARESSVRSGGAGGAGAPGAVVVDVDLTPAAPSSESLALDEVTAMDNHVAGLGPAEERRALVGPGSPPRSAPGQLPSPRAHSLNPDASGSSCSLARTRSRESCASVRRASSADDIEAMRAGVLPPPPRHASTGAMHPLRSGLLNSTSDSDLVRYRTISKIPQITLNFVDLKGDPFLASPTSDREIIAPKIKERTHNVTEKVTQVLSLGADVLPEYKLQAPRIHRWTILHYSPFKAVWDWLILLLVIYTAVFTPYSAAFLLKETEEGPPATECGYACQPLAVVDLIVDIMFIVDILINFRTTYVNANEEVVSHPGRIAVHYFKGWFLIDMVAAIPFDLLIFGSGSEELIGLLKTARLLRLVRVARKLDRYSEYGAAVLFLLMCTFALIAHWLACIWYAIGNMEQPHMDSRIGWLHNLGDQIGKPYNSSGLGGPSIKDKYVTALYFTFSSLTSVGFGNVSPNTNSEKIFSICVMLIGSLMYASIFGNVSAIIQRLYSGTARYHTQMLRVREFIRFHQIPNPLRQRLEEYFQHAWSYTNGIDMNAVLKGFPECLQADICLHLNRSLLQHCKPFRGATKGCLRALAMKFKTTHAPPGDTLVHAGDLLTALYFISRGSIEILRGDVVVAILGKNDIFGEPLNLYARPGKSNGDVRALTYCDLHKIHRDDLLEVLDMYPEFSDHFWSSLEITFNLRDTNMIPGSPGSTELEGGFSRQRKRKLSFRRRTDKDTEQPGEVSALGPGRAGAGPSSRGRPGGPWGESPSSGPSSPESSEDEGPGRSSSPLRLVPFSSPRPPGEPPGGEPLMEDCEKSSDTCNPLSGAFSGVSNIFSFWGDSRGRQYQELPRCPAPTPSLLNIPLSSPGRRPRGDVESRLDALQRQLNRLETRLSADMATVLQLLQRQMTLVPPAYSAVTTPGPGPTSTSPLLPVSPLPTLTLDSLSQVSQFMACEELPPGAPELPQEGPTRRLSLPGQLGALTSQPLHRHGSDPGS
row,SMILES,"hERG current change (%, negative = inhibition) at 10uM"
1,COc1ccc(OCC(=O)N2CCN(c3nnc(-c4ccccc4)c4ccccc34)CC2)cc1,-64.4%
2,Cc1ccccc1C(=O)NCC(=O)NNC(=O)c1cccc(Cl)c1,5.03%
3,COCCN1Cc2cccc(C(=O)Nc3ccccc3OC)c2C1=O,-18.7%
4,COC(=O)c1ccc(NC(=O)CSc2nc(N)c(NC(=O)c3ccc(Br)o3)c(=O)[nH]2)cc1,20.8%
5,CC(C)NC(=O)CSc1nnc(-c2ccc(C(C)(C)C)cc2)n1C,-7.38%
6,CCOc1ccc(S(=O)(=O)N(CC(=O)O)c2ccc(C)cc2)cc1,1.4%
7,Cc1ccc(NC(=O)NN(C)c2c(Cl)c(Cl)nn2C)cc1,-1.87%
8,CC(NC(=O)CCSc1nc(-c2ccc3c(c2)OCO3)cc(C(F)(F)F)n1)c1ccccc1 (stereo not drawn),11.4%
9,CCOC(=O)C1(CCOC)CCN(C(=O)Cc2ccc3ccccc3c2)CC1,-0.72%
10,CCc1ccc(NC(=O)CCn2ccnc2C)cc1,-21.9%
11,Cn1c(C(=O)OC(C(=O)NC2CCCC2)c2ccncc2)cc2sccc21 (stereo not drawn),-1.94%
12,Cc1nn(-c2c(Cl)cc(Cl)cc2Cl)c(=O)c2ccccc12,-0.844%
13,COC(=O)C1=C(CCc2ccccc2)NC(=O)NC1c1ccc(Br)cc1 (stereo not drawn),-11.9%
14,CC(=O)c1ccc(NC(=O)CSc2nnc(-c3ccco3)c(-c3ccco3)n2)cc1,-33%
15,Cc1cc(NC(=O)CSc2ccc3ccccc3c2)no1,-33.9%
16,Cc1ccccc1C(=O)Nc1nnc(-c2cccnc2)o1,18.4%
17,C#CC[N+]1(CC#Cc2cccc3ccccc23)CCOCC1.[Br-],12.9%
18,CC1=NN(c2ccccc2)C(=O)/C1=C/C=C/C=C/N(C)C,10.9%
19,O=C(CCn1nc(-c2ccc(Cl)cc2)ccc1=O)NCc1ccccn1,-32%
20,CCOc1ccc(CCNC(=O)CN(C)S(=O)(=O)c2cccc3nsnc23)cc1OCC,-9.79%
21,COc1cc(NC(=O)c2ccc(Br)o2)ccc1NC(=O)C(C)C,-11.7%
22,O=S(=O)(NCc1ccc(Cl)cc1Cl)c1cccs1,-30.5%

row,SMILES,"hERG current change (%, negative = inhibition) at 10uM"
1,CNC(CC(C)C)C(=O)NC1C(=O)NC(CC(N)=O)C(=O)NC2C(=O)NC3C(=O)NC(C(=O)NC(C(=O)O)c4cc(O)cc(O)c4-c4cc3ccc4O)C(O)c3ccc(c(Cl)c3)Oc3cc2cc(c3OC2OC(CO)C(O)C(O)C2OC2CC(C)(N)C(O)C(C)O2)Oc2ccc(cc2Cl)C1O.Cl.O (stereo not drawn),-0.925%
2,Cc1cc(-n2ccc(=O)[nH]c2=O)nc(-c2ccccc2)n1,-16.2%
3,O=C(NC1C2CC3CC(C2)CC1C3)C1CCCCC1 (stereo not drawn),7.35%
4,Cc1ccc2c(c1)c(C1=c3ccccc3=NC1=O)c(O)n2C,17.1%
5,COc1ccc(C(CNC(=O)c2cc(C)oc2C)N2CCOCC2)cc1 (stereo not drawn),-3.8%
6,CC1=C(C(=O)OCc2ccccc2)C(c2ccccc2OS(=O)(=O)c2ccccc2[N+](=O)[O-])NC(=O)N1CCCC(=O)O (stereo not drawn),-4.46%
7,COc1ccccc1C(=O)Nc1cccc(SC)c1,-7.44%
8,Cc1ccc(OCC(=O)N2CCN(Cc3cccnc3)CC2)cc1.O=C(O)C(=O)O,17.7%
9,Cc1ccc(Cl)c(N/C=C/C(=O)c2ccccc2)c1,11.4%
10,Cc1ccc(C(=O)NC(=S)Nc2ccc(N3CCN(C(=O)c4ccco4)CC3)cc2)cc1,17.1%
11,CN1CC(=O)NC1=NC(=O)c1ccc(Cl)c(S(=O)(=O)N2CCCCCC2)c1,-34.2%
12,COc1cc(/C=C2/NC(=O)N(Cc3ccccc3F)C2=O)ccc1O,-1.04%
13,CCCCN(C(=O)CC1CCCC1)c1c(N)n(CCCC)c(=O)[nH]c1=O,5.24%
14,COc1ccc(-n2nc(C(=O)N(C)C)nc2-c2ccccc2)cc1,5.39%
15,CN(C)Cc1c(O)ccc2c(=O)c(-c3ccccc3)c(C(F)(F)F)oc12,5.31%
16,COc1ccc(N2C(=NC(=O)C(C)Oc3ccccc3)SC3CS(=O)(=O)CC32)cc1 (stereo not drawn),-36.6%
17,CCN(CC)C(=O)Cn1cc(C(=O)C(=O)N2CCN(c3ccc(OC)cc3)CC2)c2ccccc21,16.1%
18,Cc1cc(C(=O)O/N=C(\N)c2ccc(C(C)(C)C)cc2)no1,13.6%
19,CCCCCCn1c(SCC(=O)OC)nc2c1c(=O)[nH]c(=O)n2C,-70.1%
20,O=[N+]([O-])c1cc(C(F)(F)F)ccc1Sc1ccc2ccccc2n1,13.3%
21,O=c1[nH]cnc2cc(-c3ccc(Br)cc3)sc12,12.3%
22,CCCOc1ccc(Cn2c(=O)oc3ccc(C)cc32)cc1OC,4.73%

row,SMILES,"hERG current change (%, negative = inhibition) at 10uM"
1,COc1ccc(CN2C(=O)CSCC2=O)cc1OC,12.1%
2,CC(=O)CCc1ccccc1,2.76%
3,CCN1CCN(C(=O)Cn2nc(-c3ccc(Cl)cc3)ccc2=O)CC1,2.03%
4,O=C(COc1coc(CN2CCN(c3ccc(F)cc3)CC2)cc1=O)NCC1CCCO1 (stereo not drawn),10.2%
5,Cc1nc2ccccn2c1C(=O)NNC(=O)Nc1ccccc1,10.2%
6,CCc1nnc(NC(=O)CSc2nc(C)c3c(c2C#N)CCCC3)s1,9.44%
7,C/C(CC(=O)NCc1ccccc1)=N\NC(=O)c1cnccn1,-8.01%
8,CN1CCC(=O)N(CCN=[N+]=[N-])CC1,22.9%
9,COc1c2ccoc2c(OC(C)=O)c2oc(C)cc(=O)c12,26.5%
10,CN1C(=O)C(C)(C)c2cc(S(=O)(=O)N3CCC(C(=O)NCc4ccc(Cl)cc4)CC3)ccc21,-11.3%
11,O=C(O)Cn1nnc2ccccc21,-3.4%
12,CN(C)CC#Cc1cncc(C(=O)NNC(=O)Nc2ccc(Cl)cc2)c1,17.7%
13,COc1ccc(C2CCCN2C(=S)Nc2c(C)cccc2C)cc1OC (stereo not drawn),5.97%
14,COc1c(C)cc(Br)cc1C(=O)Nc1ccc(S(N)(=O)=O)cc1,18.9%
15,CCc1ccc2[nH]c(=O)c(CN(Cc3ccc4c(c3)OCO4)C(=O)c3ccco3)cc2c1,-22.7%
16,CSc1ccc(S(=O)(=O)NC2CC3CCC2C3)cc1 (stereo not drawn),8.85%
17,CC(C)(C)n1c(O)c2ccc(C(=O)N=NC(=O)c3ccccc3)cc2c1O,5.48%
18,CC(C)CNC(=O)CSc1nnc2ccccn12,14.6%
19,CCOC(=O)CC(NC(=O)c1cc2cc(Br)ccc2oc1=O)c1cccc([N+](=O)[O-])c1 (stereo not drawn),-27.5%
20,Cc1c(CC(=O)O)c(=O)oc2c(C)c(OCc3ccc(F)cc3F)ccc12,30.9%
21,CCCc1nnc(NC(=O)CCC(=O)N2CCN(Cc3ccc(Cl)cc3)CC2)s1,-12.9%
22,CCn1c(=O)n(CC)c2cc(N3CCCC3)c(NC(=O)c3cc(Cl)ccc3OC)cc21,10.7%

row,SMILES,"hERG current change (%, negative = inhibition) at 10uM"
1,CCC(C)NC(=O)C1(O)c2ccccc2NC(=O)N1c1ccc(C)c(C)c1 (stereo not drawn),19.9%
2,O=C(NNC(=O)c1ccc2nc[nH]c2c1)c1ccccc1,14.8%
3,Br.CCn1c(-c2cc(OC)ccc2OC)csc1=Nc1c(C)n(C)n(-c2ccccc2)c1=O,9.46%
4,CCCCc1nnc(SCC(=O)Nc2nccs2)n1C,2.44%
5,O=P(/C(=N/O)N1CCOCC1)(N1CCOCC1)N1CCOCC1,12.1%
6,O=C(NNc1nc2ccccc2s1)Nc1ccc(F)cc1,3.17%
7,CN(Cc1c(F)cccc1Cl)C(=O)C1CC(=O)N(CCc2ccccc2)C1 (stereo not drawn),-34.7%
8,CC(=O)Nc1sc2c(c1C(c1ccccn1)N1CCN(C)CC1)CCCC2 (stereo not drawn),-12.9%
9,COc1ccc(Cn2c(=O)cc(N)n(-c3ccccc3C)c2=O)cc1,16.6%
10,Cc1ccc(C)c(NC(=O)Cn2nc(C)c3ccccc3c2=O)c1,9%
11,COc1ccc(S(=O)(=O)N2CCOCC2)cc1NC(=O)CN1C(=O)NC2(CCCCC2C)C1=O (stereo not drawn),-41.9%
12,COCCN(C(=O)CCC(=O)Nc1ccccn1)C(C(=O)NCCC(C)C)c1ccc(F)cc1 (stereo not drawn),5.07%
13,Cc1ccnc(NC(=O)CSc2cc(=O)n(C)c3ccccc23)c1,19.6%
14,O=c1ccc(-c2ccc(S(=O)(=O)Nc3ccccc3)o2)n[nH]1,5.76%
15,O=C(O)c1ccc2c(c1)C(=O)N(NC(=O)c1ccccc1)C2=O,19.4%
16,O=C(Nc1ccccc1)C1CC(=O)n2ncnc2N1 (stereo not drawn),6.48%
17,C=C(C)CSc1[nH]c(=O)cc(C)c1C#N,10.2%
18,Cc1ccc(C2=Nc3ccccc3N(C(=O)c3ccccc3)C(C)C2)cc1 (stereo not drawn),-9.05%
19,O=C(C1CCC(CNc2c(N3CCCC3)c(=O)c2=O)CC1)N1CCc2ccccc21 (stereo not drawn),1.89%
20,COc1ccccc1Nc1nc(C)cs1,8.79%
21,CCN(C(=O)CSc1nnnn1C)c1c(N)n(Cc2ccccc2)c(=O)[nH]c1=O,-22.9%
